# Assay results reported in the antibiotic and cytotoxicity screens of Wong et al. (2023).
# This is one part of the list.
# Key:
# HSkMC = human skeletal muscle cells; experiment: cytotoxicity call (relative viability < 0.9); details: 10 µM
# HepG2 = experiment: cytotoxicity call (relative viability < 0.9); details: 10 µM
# S. aureus RN4220 = experiment: growth inhibition call (relative growth <= 0.2); details: 50 µM
Compound,cytotoxicity call (HSkMC),cytotoxicity call (HepG2),growth inhibition call (S. aureus RN4220)
C[C@@H]1CCCCO[C@H](CN(C)Cc2ccc3c(c2)OCO3)[C@@H](C)CN([C@H](C)CO)C(=O)c2cc(NS(=O)(=O)c3cccs3)ccc2O1,inactive,inactive,inactive
Cc1noc(C)c1NC(=O)N(C)C[C@H]1Oc2ccc(NC(=O)Cn3cnnn3)cc2C(=O)N([C@H](C)CO)C[C@H]1C,inactive,inactive,inactive
C[C@H](CO)N1C[C@H](C)[C@@H](CN(C)C(=O)Nc2cccc3ccccc23)OCCCC[C@H](C)Oc2ccc(NC(=O)C3CCCCC3)cc2C1=O,inactive,inactive,inactive
COc1ccc(C#Cc2ccc([C@H]3[C@H](CO)N4CCCCN(S(=O)(=O)c5cn(C)cn5)C[C@@H]34)cc2)cc1,inactive,inactive,inactive
COc1cccc(NC(=O)N(C)C[C@@H]2Oc3ncc(C#Cc4ccncc4)cc3C(=O)N([C@H](C)CO)C[C@@H]2C)c1,inactive,inactive,inactive
COc1ccc(NC(=O)Nc2ccc3c(c2)C(=O)N([C@H](C)CO)C[C@H](C)[C@H](CN(C)C(=O)Nc2ccc(OC)cc2)OCCCC[C@@H](C)O3)cc1,inactive,inactive,inactive
C[C@@H]1CCCCO[C@@H](CN(C)Cc2ccc3c(c2)OCO3)[C@H](C)CN([C@@H](C)CO)C(=O)c2cc(NC(=O)Nc3ccc(C(F)(F)F)cc3)ccc2O1,active,active,inactive
COc1ccc(S(=O)(=O)N(C)C[C@@H]2OCCCC[C@@H](C)Oc3ccc(NC(=O)Nc4c(C)noc4C)cc3C(=O)N([C@H](C)CO)C[C@@H]2C)cc1,inactive,inactive,inactive
Cc1ccc(S(=O)(=O)N(C)C[C@H]2OCCCC[C@H](C)Oc3ccc(NC(=O)Cc4ccccc4)cc3C(=O)N([C@H](C)CO)C[C@H]2C)cc1,inactive,inactive,inactive
Oc1cc(O)c2c(c1)OC(c1cc(O)c(O)c(O)c1)C(O)C2c1c(O)cc(O)c2c1OC(c1cc(O)c(O)c(O)c1)C(O)C2c1c(O)cc(O)c2c1OC(c1cc(O)c(O)c(O)c1)C(O)C2 (stereo unspecified),inactive,inactive,inactive
C[C@H]1CN([C@@H](C)CO)C(=O)c2cc(NS(=O)(=O)c3cn(C)cn3)ccc2O[C@H]1CN(C)S(=O)(=O)c1ccccc1,inactive,inactive,inactive
CCCN(C)C[C@@H]1OCCCC[C@@H](C)Oc2ccc(NC(=O)Nc3ccccc3)cc2C(=O)N([C@H](C)CO)C[C@@H]1C,inactive,inactive,inactive
C[C@H](CO)N1C[C@H](C)[C@H](CN(C)S(=O)(=O)c2cn(C)cn2)Oc2ncc(-c3ccc(F)cc3)cc2C1=O,inactive,inactive,inactive
C[C@H]1CN([C@@H](C)CO)S(=O)(=O)c2ccc(C#CCN(C)C)cc2O[C@@H]1CN(C)Cc1ccccc1F,inactive,inactive,inactive
C[C@@H]1CCCCO[C@H](CN(C)C(=O)Nc2ccccc2)[C@H](C)CN([C@H](C)CO)C(=O)c2cc(NS(=O)(=O)c3cccs3)ccc2O1,inactive,inactive,inactive
C[C@H]1CCCCO[C@H](CN(C)CC2CCCCC2)[C@@H](C)CN([C@@H](C)CO)C(=O)c2cc(NC(=O)Nc3ccc(F)cc3)ccc2O1,inactive,active,inactive
Cc1noc(C)c1NC(=O)Nc1ccc2c(c1)C(=O)N([C@@H](C)CO)C[C@H](C)[C@@H](CN(C)S(=O)(=O)c1ccc(Cl)cc1)OCCCC[C@@H](C)O2,inactive,inactive,inactive
C[C@H](CO)N1C[C@H](C)[C@@H](CN(C)C(=O)Nc2ccccc2)Oc2ccc(NC(=O)C3CC3)cc2CC1=O,inactive,inactive,inactive
CN1C(=O)c2cc(NC(=O)C3CCC3)ccc2OC[C@@H]2O[C@@H](CC(=O)NCCc3ccncc3)CC[C@H]21,inactive,inactive,inactive
COc1ccc(-c2cnc3c(c2)C(=O)N([C@H](C)CO)C[C@@H](C)[C@@H](CN(C)C(=O)C2CCOCC2)O3)cc1,inactive,inactive,inactive
C[C@H]1CN([C@@H](C)CO)C(=O)c2cc(C#CCc3ccccc3)cnc2O[C@H]1CN(C)CC1CCOCC1,inactive,inactive,inactive
C[C@H]1CCCCN1C(=O)CCS(=O)(=O)c1ccc2c(c1)n(C)c(=O)c(=O)n2C,inactive,inactive,inactive
COc1ccc(S(=O)(=O)Nc2ccc3c(c2)C(=O)N([C@@H](C)CO)C[C@H](C)[C@@H](CN(C)C(=O)Nc2ccccc2)OCCCC[C@@H](C)O3)cc1,inactive,inactive,inactive
CCCCC/C=C\C/C=C\CCCCCCCC(=O)O[C@H](COC(=O)CCCCCCCCCCCCCCC)COP(=O)(O)OCC[N+](C)(C)C,inactive,inactive,inactive
O=C(C[C@H]1CC[C@H]2[C@@H](COC[C@@H](O)CN2S(=O)(=O)c2cccc(F)c2)O1)NCCCN1CCOCC1,inactive,inactive,inactive
C[C@@H]1CCCCO[C@H](CN(C)C(=O)C2CCCCC2)[C@H](C)CN([C@@H](C)CO)C(=O)c2cc(NS(=O)(=O)c3ccc(F)cc3)ccc2O1,inactive,inactive,inactive

Compound,cytotoxicity call (HSkMC),cytotoxicity call (HepG2),growth inhibition call (S. aureus RN4220)
C[C@@H]1CN([C@H](C)CO)S(=O)(=O)c2ccc(-c3ccc(C(=O)N(C)C)cc3)cc2O[C@@H]1CN(C)C(=O)Cc1ccccn1,inactive,inactive,inactive
Cc1noc(C)c1S(=O)(=O)N(C)C[C@@H]1OCCCC[C@@H](C)Oc2ccc(NC(=O)Nc3cccc4ccccc34)cc2C(=O)N([C@H](C)CO)C[C@H]1C,inactive,inactive,inactive
Clc1cc(Cl)cc(Oc2nc(-c3ccccc3)ns2)c1,inactive,inactive,inactive
C[C@@H]1CN([C@@H](C)CO)C(=O)c2cc(Br)cnc2O[C@H]1CN(C)Cc1ccc2c(c1)OCO2,inactive,inactive,inactive
Cc1noc(C)c1S(=O)(=O)N(C)C[C@H]1Oc2ccc(NC(=O)c3ccncc3)cc2C(=O)N([C@H](C)CO)C[C@@H]1C,inactive,inactive,inactive
C[C@@H]1CN([C@@H](C)CO)C(=O)Cc2cc(NC(=O)Nc3ccc4c(c3)OCO4)ccc2O[C@H]1CN(C)Cc1ccc(Oc2ccccc2)cc1,inactive,inactive,inactive
Cc1cc(-c2cccs2)cc(C)n1,inactive,inactive,inactive
N[C@](CC1c2ccccc2Oc2ccccc21)(C(=O)O)[C@H]1C[C@@H]1C(=O)O,inactive,inactive,inactive
COc1cccc(S(=O)(=O)N2C[C@H](O)COC[C@H]3O[C@H](CC(=O)N4CCN(c5ccccc5)CC4)CC[C@@H]32)c1,inactive,inactive,inactive
C[C@@H]1CCCCO[C@@H](CN(C)Cc2ccccc2)[C@H](C)CN([C@H](C)CO)C(=O)c2cc(NC(=O)NC3CCCCC3)ccc2O1,inactive,inactive,inactive
C[C@@H]1CN([C@H](C)CO)C(=O)c2c(c3ccccc3n2C)-c2ccccc2CO[C@H]1CN(C)C(=O)Nc1cccc(C(F)(F)F)c1,inactive,inactive,inactive
CC(=O)N[C@@H](C(=O)O)C(C)(C)S[NH2+][O-],inactive,inactive,inactive
COc1ccc(NC(=O)Nc2ccc3c(c2)C(=O)N([C@@H](C)CO)C[C@H](C)[C@H](CN(C)S(=O)(=O)c2cccs2)OCCCC[C@@H](C)O3)cc1,inactive,inactive,inactive
C[C@H](CO)N1C[C@H](C)[C@@H](CN(C)C(=O)c2ccccn2)Oc2cc(Br)ccc2S1(=O)=O,inactive,inactive,inactive
O=C(C[C@@H]1CC[C@@H]2[C@H](COC[C@@H](O)CN2C(=O)c2ccccc2)O1)NCCCN1CCOCC1,inactive,inactive,inactive
CC(C)NC(=O)Nc1ccc2c(c1)C(=O)N([C@@H](C)CO)C[C@@H](C)[C@H](CN(C)Cc1ccc(Cl)c(Cl)c1)OCCCC[C@H](C)O2,inactive,inactive,inactive
CNC[C@H]1Oc2ccc(NS(=O)(=O)c3cn(C)cn3)cc2CC(=O)N([C@@H](C)CO)C[C@@H]1C,inactive,inactive,inactive
C=C[C@@H]1[C@@H](O[C@@H]2O[C@H](CO)[C@@H](O)[C@H](O)[C@@H]2O)OC=C(C(=O)O)[C@H]1CC(=O)O,inactive,inactive,inactive
C#CCN(O[C@@H](/C=C/[C@@H](O)Cc1ccccc1)C1CC1)[C@@H](Cc1ccc(-n2cc(COc3ccccc3/C=C(C)/C=C/C(=O)NO)nn2)cc1)C(=O)OC,inactive,inactive,inactive
Cc1ccc(S(=O)(=O)Nc2cccc3c2O[C@H](CN(C)S(=O)(=O)c2c(C)noc2C)[C@@H](C)CN([C@H](C)CO)C3=O)cc1,inactive,inactive,inactive
C[C@H](CO)N1C[C@H](C)[C@@H](CN(C)S(C)(=O)=O)OCc2ccccc2-c2c(n(C)c3ccccc23)C1=O,inactive,inactive,inactive
CN1C(=O)c2cc(NC(=O)C3CCOCC3)ccc2OC[C@@H]2O[C@H](CC(=O)NCCc3ccncc3)CC[C@@H]21,inactive,inactive,inactive
C[C@@H]1CN([C@H](C)CO)S(=O)(=O)c2ccc(C#CC(C)(C)O)cc2O[C@H]1CN(C)Cc1ccc(F)cc1,inactive,inactive,inactive
C[C@@H]1CN([C@H](C)CO)C(=O)Cc2cc(NC(=O)CCN3CCOCC3)ccc2O[C@@H]1CN(C)Cc1ccccc1,inactive,inactive,inactive
C[C@H]1CN([C@@H](C)CO)C(=O)c2cc(NC(=O)Nc3ccc(C(F)(F)F)cc3)ccc2O[C@@H]1CN(C)Cc1ccc(Cl)c(Cl)c1,inactive,inactive,inactive
CCS(=O)(=O)Nc1ccc2c(c1)C(=O)N(C)[C@@H]1CC[C@@H](CC(=O)NCc3ccc(OC)cc3)O[C@H]1CO2,inactive,inactive,inactive
